# Source: the BET-seq Pho4 binding data (Le et al. 2018)
# The list shows a part of the results. Values were computed here from the reads of four pooled replicates and scatter widely.
# Target: T1, Pho4 (S. cerevisiae) (UniProt P07270)
# T1 sequence: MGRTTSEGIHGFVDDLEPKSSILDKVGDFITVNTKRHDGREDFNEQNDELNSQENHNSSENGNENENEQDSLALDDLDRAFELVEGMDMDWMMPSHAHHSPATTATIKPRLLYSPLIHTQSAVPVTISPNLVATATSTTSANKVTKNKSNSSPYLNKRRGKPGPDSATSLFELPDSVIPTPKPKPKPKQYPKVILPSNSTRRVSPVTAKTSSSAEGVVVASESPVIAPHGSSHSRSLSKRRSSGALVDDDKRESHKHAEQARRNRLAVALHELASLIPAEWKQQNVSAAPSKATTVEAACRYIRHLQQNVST
# Test: relative binding free energy (BET-seq); higher = weaker binding
# Conditions: reference: library average
row,Sequence,relative binding free energy [kcal/mol]
1,TGGTACACGTGAGATT,0.32
2,AGGGGCACGTGCGGCT,-0.29
3,ATGGGCACGTGTTCGG,-0.02
4,CAGGGCACGTGGAGTA,-0.15
5,GTATGCACGTGAAGAG,0.33
6,GGTTGCACGTGATAGT,0.05
7,CTTGGCACGTGGAGTT,-0.07
8,TGGTTCACGTGTATTT,0.24
9,AAATTCACGTGAAGAG,0.38
10,GTTTGCACGTGTCTGA,-0.02
11,GGTTACACGTGTAAGG,0.25
12,TGGTGCACGTGACTGA,0.11
13,TCGGACACGTGTATGG,0.07
14,TGTTGCACGTGTCGGA,0.11
15,TTTGGCACGTGGATTT,-0.06
16,GAGATCACGTGGTTGT,0.29
17,GGGATCACGTGATAGT,0.3
18,CGGGGCACGTGTTGGT,-0.06
19,CATGTCACGTGTTTTG,0.16
20,TTTGTCACGTGGCTGT,0
21,GAGTGCACGTGGGCTG,-0.29
22,AATGCCACGTGTGTGG,-0.06
23,AAGGTCACGTGCGGGT,0.05
24,TGGGTCACGTGATATC,0.29
25,AAAGACACGTGAGGTG,0.21

row,Sequence,relative binding free energy [kcal/mol]
1,TGCGGCACGTGAGTAT,0.13
2,TATGTCACGTGAAGGC,0.28
3,CGGAACACGTGGGTTA,-0.1
4,GTATACACGTGGTTAA,0.04
5,TCTGTCACGTGAAGGG,0.27
6,GTAGCCACGTGGGGGA,-0.19
7,TTTGGCACGTGAGTTA,0.17
8,TCTAGCACGTGATTTT,0.16
9,GGAAACACGTGGTAGT,0.02
10,GGAGCCACGTGTGGTG,-0.05
11,AGTGGCACGTGTAACG,-0.06
12,GTCAGCACGTGGATTG,0
13,TGGGGCACGTGAACTG,0.04
14,CTATGCACGTGGGTAG,-0.22
15,AGGTTCACGTGGCGAG,0.17
16,TTTATCACGTGGGCCT,0.12
17,GTCGGCACGTGCTGGT,-0.01
18,TGGGCCACGTGGTCGG,-0.07
19,ACAGGCACGTGGTGAG,-0.15
20,GTTCTCACGTGTGCGG,0.32
21,GCTAGCACGTGTAGGC,0.08
22,AGAGTCACGTGGGGGA,-0.05
23,AGGGTCACGTGCTTTT,-0.12
24,ACTTGCACGTGTATGG,-0.09
25,TTAAACACGTGAGATA,0.29

row,Sequence,relative binding free energy [kcal/mol]
1,TTATGCACGTGGATAG,-0.03
2,GCGTCCACGTGGGGTT,-0.07
3,AATTACACGTGTTTAG,0.19
4,TGGTCCACGTGGTAGT,-0.03
5,AGGTCCACGTGGGTGC,-0.09
6,TGTGTCACGTGCCTGG,-0.09
7,GGTTACACGTGTAGAG,0.09
8,CAGTACACGTGGTGAG,0.07
9,TCCGTCACGTGGTTGT,-0.05
10,ATTTACACGTGATTGG,0.08
11,ATACTCACGTGTATTT,0.12
12,TCATGCACGTGTGGTC,0.01
13,TGTAGCACGTGAGTGA,0.01
14,ATGGACACGTGGAAGG,0.08
15,GTCGGCACGTGGTCGA,-0.07
16,GGGCTCACGTGAGTGG,0.45
17,GGGCCCACGTGGTTGT,-0.16
18,AGTTCCACGTGGTTTA,0
19,GGTTGCACGTGGTTGT,-0.03
20,TATTGCACGTGAAGGA,0.14
21,TTGTGCACGTGTCTGG,0.17
22,TTTGTCACGTGGCAGA,-0.04
23,GATGGCACGTGAAGAT,0.31
